Assay results reported in paper PMC6664820, “Novel natural and synthetic inhibitors of solute carriers SGLT1 and SGLT2” (Pharmacology Research & Perspectives, 2019).
About 40 (2%) of roughly 1,900 compounds showed an effect of 50% or more. Some of the results follow.

biological target: human SGLT1 (hSGLT1) (human, UniProt P13866); assay: primary screen, percent of control activity; higher = less effect of the substance; set-up: single well; details: 50 µM
How it was run: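 Single-point screen at 50 µmol/L in CHO-hSGLT1 cells, with 160 µmol/L 1-NBD-glucose in glucose-free DMEM for 90 min at 37°C. Fluorescence from isopropanol extracts was calibrated, and CHO wild-type uptake was subtracted. Data are percent of uptake without compound.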

human SGLT1 (hSGLT1), sequence (P13866 whole entry, looked up): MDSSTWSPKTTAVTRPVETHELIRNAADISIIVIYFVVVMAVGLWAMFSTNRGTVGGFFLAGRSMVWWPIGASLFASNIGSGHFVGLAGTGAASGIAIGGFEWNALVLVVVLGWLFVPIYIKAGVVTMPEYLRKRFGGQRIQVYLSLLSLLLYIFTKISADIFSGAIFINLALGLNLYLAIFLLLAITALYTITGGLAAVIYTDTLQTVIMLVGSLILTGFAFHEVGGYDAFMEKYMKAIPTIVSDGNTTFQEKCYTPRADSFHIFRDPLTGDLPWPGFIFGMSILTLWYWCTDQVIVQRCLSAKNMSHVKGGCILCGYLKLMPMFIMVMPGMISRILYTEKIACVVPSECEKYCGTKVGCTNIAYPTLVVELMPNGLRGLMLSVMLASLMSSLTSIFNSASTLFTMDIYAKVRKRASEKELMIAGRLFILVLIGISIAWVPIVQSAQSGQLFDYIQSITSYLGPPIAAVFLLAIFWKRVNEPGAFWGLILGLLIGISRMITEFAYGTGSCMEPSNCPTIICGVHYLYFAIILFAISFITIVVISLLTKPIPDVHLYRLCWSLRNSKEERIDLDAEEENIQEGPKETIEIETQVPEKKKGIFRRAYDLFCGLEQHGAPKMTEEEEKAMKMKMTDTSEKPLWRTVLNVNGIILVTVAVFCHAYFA

Compared with `N#Cc1ccc2c(c1)N(CCCN1CCC(O)CC1)c1ccccc1S2`, `CC(CN1c2ccccc2Sc2ccccc21)N(C)C.Cl` (centres unmarked) is higher in “NORMALIZED SGLT1 ACTIVITY (%)” value: 75% for the first, 87% for the second.

Compared with `Nc1ccc(C(=O)Oc2ccccc2)c(O)c1`, `CC(=O)CC(c1ccccc1)c1c(O)c2ccccc2oc1=O` (centres unmarked) is lower in “NORMALIZED SGLT1 ACTIVITY (%)” value: 175% for the first, 134% for the second.

First: N#Cc1c(Cl)c(Cl)c(Cl)c(C#N)c1Cl
Second: Oc1c(Cl)c(Cl)c(Cl)c(Cl)c1Cl
The “NORMALIZED SGLT1 ACTIVITY (%)” value of the first is lower: 76% for the first, 622% for the second.

First: C[C@@H]1CC[C@@]2(OC1)OC1C(O)C3C4CC[C@H]5C[C@H](O[C@@H]6O[C@H](CO)[C@H](O[C@@H]7O[C@H](CO)[C@@H](O)[C@H](O[C@@H]8OC[C@@H](O)[C@H](O)[C@H]8O)[C@H]7O[C@@H]7O[C@H](CO)[C@H](O)[C@H](O[C@@H]8O[C@H](CO)[C@@H](O)[C@H](O)[C@H]8O)[C@H]7O)[C@H](O)[C@H]6O)[C@H](O)C[C@]5(C)C4CC[C@]3(C)C1[C@@H]2C (some centres unmarked)
Second: C[C@]12CC(=O)C3C(CC[C@@H]4C[C@H](O)CC[C@]34C)C1CC[C@]2(O)C(=O)CO (some centres unmarked)
The “NORMALIZED SGLT1 ACTIVITY (%)” value of the first is lower: 76% for the first, 90% for the second.

First: COC(=O)c1c(Cl)c(Cl)c(C(=O)OC)c(Cl)c1Cl
Second: COC(=O)c1c(OC)cc2c(c1C)Oc1c(Cl)c(OC(C)=O)c(Cl)c(C)c1C(=O)O2
The “NORMALIZED SGLT1 ACTIVITY (%)” value of the first is lower: 107% for the first, 279% for the second.

First: CCn1cc(C(=O)O)c(=O)c2cc3c(cc21)OCO3
Second: COc1c(-c2coc3cc4c(cc3c2=O)CC(OC(C)=O)C(C)(C)O4)ccc2c1C=CC(C)(C)O2 (centres unmarked)
The “NORMALIZED SGLT1 ACTIVITY (%)” value of the first is lower: 204% for the first, 308% for the second.

Compared with `CCCc1nc(C(C)(C)O)c(C(=O)OCc2oc(=O)oc2C)n1Cc1ccc(-c2ccccc2-c2nn[nH]n2)cc1`, `COc1ccc(C2Sc3ccccc3N(CCN(C)C)C(=O)C2OC(C)=O)cc1.Cl` (centres unmarked) is lower in “NORMALIZED SGLT1 ACTIVITY (%)” value: 208% for the first, 70% for the second.

First: CC(C)CCCC(C)[C@H]1CCC2C3CC=C4CC(=O)CC[C@]4(C)C3CC[C@@]21C (some centres unmarked)
Second: CC[C@H](/C=C/C(C)C1CCC2C3CCC4=CC(=O)CC[C@]4(C)C3CC[C@]12C)C(C)C (some centres unmarked)
The “NORMALIZED SGLT1 ACTIVITY (%)” value of the first is higher: 159% for the first, 126% for the second.

First: S=c1[nH]cnc2nc[nH]c12
Second: Nc1nc2ncc(=O)[nH]c2c(=O)[nH]1
The “NORMALIZED SGLT1 ACTIVITY (%)” value of the first is higher: 103% for the first, 94% for the second.

Going from `COc1c(O)cc2c(c1O)[C@@H]1O[C@H](CO)[C@@H](O)[C@H](O)[C@H]1OC2=O.O` to `O=c1cc(-c2ccc(O)cc2)oc2cc(O[C@@H]3O[C@H](CO)[C@@H](O)[C@H](O)[C@H]3O[C@@H]3OC[C@](O)(CO)[C@H]3O)cc(O)c12`, the “NORMALIZED SGLT1 ACTIVITY (%)” value rises from 81% to 127%.

Compared with `O=C(Cc1ccccc1)NO`, `N[C@H](Cc1ccccc1)C(=O)O` is lower in “NORMALIZED SGLT1 ACTIVITY (%)” value: 95% for the first, 88% for the second.

First: CC(=O)O.CSCCC(N)C(=O)NC(CC(C)C)C(=O)NC(Cc1ccccc1)C(=O)O (centres unmarked)
Second: CC(C)CC(NC(=O)C(Cc1ccccc1)NC(=O)CNC(=O)CNC(=O)C(N)Cc1ccc(O)cc1)C(=O)O (centres unmarked)
The “NORMALIZED SGLT1 ACTIVITY (%)” value of the first is lower: 154% for the first, 158% for the second.

Going from `NC/C=C/C(=O)O` to `NC(N)=O`, the “NORMALIZED SGLT1 ACTIVITY (%)” value falls from 114% to 96%.

Going from `CS(=O)(=O)[O-].C[n+]1ccccc1/C=N/O` to `CNC(C)[C@H](O)c1ccccc1.Cl` (some centres unmarked), the “NORMALIZED SGLT1 ACTIVITY (%)” value falls from 121% to 106%.

First: CC(C)NCC(O)c1ccc(O)c(O)c1.Cl (centres unmarked)
Second: CCC(c1ccc(O)cc1)C(CC)c1ccc(O)cc1 (centres unmarked)
The “NORMALIZED SGLT1 ACTIVITY (%)” value of the first is higher: 140% for the first, 63% for the second.

Going from `CC(C)N(C(=O)SCC(Cl)=C(Cl)Cl)C(C)C` to `CS(=O)(=O)c1ccc([C@@H](O)[C@@H](CO)NC(=O)C(Cl)Cl)cc1`, the “NORMALIZED SGLT1 ACTIVITY (%)” value falls from 98% to 86%.

First: CCCC(C)C1(CC)C(=O)N=C([S-])NC1=O.[Na+] (centres unmarked)
Second: Cn1cnc2c1c(=O)[nH]c(=O)n2C
The “NORMALIZED SGLT1 ACTIVITY (%)” value of the first is higher: 143% for the first, 123% for the second.

Going from `COc1ccccc1OCC(O)CN1CCN(CC(=O)Nc2c(C)cccc2C)CC1` (centres unmarked) to `CC(CN(C)C)CN1c2ccccc2CCc2ccccc21.O=C(O)/C=C\C(=O)O` (centres unmarked), the “NORMALIZED SGLT1 ACTIVITY (%)” value falls from 141% to 51%.

Compared with `C=C1C(=O)O[C@@H]2C[C@@]3(C)CCC[C@H](C)C3=C[C@H]12`, `C=C1C2=CC(=O)O[C@@H](c3ccoc3)[C@]2(C)CCC1[C@@]1(C)C=CC(=O)C(C)(C)[C@@H]1CC(=O)OC` (some centres unmarked) is lower in “NORMALIZED SGLT1 ACTIVITY (%)” value: 104% for the first, 95% for the second.

Going from `Cl.Clc1cccc(Cl)c1N=C1NCCN1` to `Cc1nc(C)c(Cl)c(O)c1Cl`, the “NORMALIZED SGLT1 ACTIVITY (%)” value rises from 130% to 138%.

Compared with `CC1=C(C(=O)O)N2C(=O)[C@@H](NC(=O)C(N)c3ccccc3)[C@H]2SC1` (some centres unmarked), `CCOC(=O)[C@H](CCc1ccccc1)N[C@@H](C)C(=O)N1[C@H](C(=O)O)C[C@H]2CCCC[C@@H]21` is higher in “NORMALIZED SGLT1 ACTIVITY (%)” value: 85% for the first, 113% for the second.

First: COc1ccc2c(c1)OC[C@@H](Cc1ccc(OC)c(OC)c1)[C@H]2O
Second: COc1ccc2cc(CCC(C)=O)ccc2c1
The “NORMALIZED SGLT1 ACTIVITY (%)” value of the first is lower: 78% for the first, 206% for the second.

Going from `CC(C)[C@@H]1CC[C@@H](C)C[C@H]1O` to `CC(C)c1c(O)ccc2c1CCC1[C@@](C)(C=O)CCC[C@]21C` (some centres unmarked), the “NORMALIZED SGLT1 ACTIVITY (%)” value falls from 116% to 96%.

First: O=C(/C=C/c1ccc(O)c(O)c1)O[C@@H]1C[C@](O)(C(=O)O)C[C@@H](O)[C@H]1O
Second: C[C@]12CCC(=O)C=C1CCC1C2[C@@H](O)C[C@@]2(C)C1CC[C@]2(O)C(=O)CO (some centres unmarked)
The “NORMALIZED SGLT1 ACTIVITY (%)” value of the first is higher: 132% for the first, 101% for the second.

Going from `N[C@H](C(=O)O)[C@@H]1CC(Cl)=NO1` to `CC(N)CO` (stereo in doubt), the “NORMALIZED SGLT1 ACTIVITY (%)” value rises from 89% to 126%.

First: C#C[C@]1(O)CCC2C3CCC4=CC(=O)CC[C@@H]4C3CC[C@@]21C (some centres unmarked)
Second: CC(=O)OC1CC[C@@]2(C)C(CC[C@]3(C)C2CCC2C4CC(C)(C)CCC4(C(=O)O)CC[C@]23C)C1(C)C (some centres unmarked)
The “NORMALIZED SGLT1 ACTIVITY (%)” value of the first is higher: 108% for the first, 107% for the second.

First: CN/C(=N\C#N)NCCSCc1nc[nH]c1C
Second: COc1ccc(C(=O)O)cc1OC
The “NORMALIZED SGLT1 ACTIVITY (%)” value of the first is lower: 114% for the first, 200% for the second.

First: Cc1c(C(N)=O)cc([N+](=O)[O-])cc1[N+](=O)[O-]
Second: Cc1occc(=O)c1O
The “NORMALIZED SGLT1 ACTIVITY (%)” value of the first is higher: 125% for the first, 52% for the second.

Going from `O=S(=O)([O-])CCS.[Na+]` to `Cc1cc(/C=C/c2ccc3cc(N(C)C)ccc3[n+]2C)c(C)n1-c1ccccc1.O=C([O-])c1cc2ccccc2c(Cc2c(O)c(C(=O)O)cc3ccccc23)c1O`, the “NORMALIZED SGLT1 ACTIVITY (%)” value rises from 118% to 275%.

`COC(=O)[C@@H]1OC(=O)[C@H]2O[C@@]23[C@@]1(C)CCC1[C@@]2(C)CCC(=O)C(C)(C)C2C[C@@H](OC(C)=O)[C@]13C` (some centres unmarked) was tested, and the “NORMALIZED SGLT1 ACTIVITY (%)” value was 159%.
